Test results from patent publication US20240343816A1 (INSTITUTE OF HEALTH AND MEDICINE HEFEI COMPREHENSIVE …, published 2024).

Assays:
[1] = molecular target: T1, human-derived IL-6Rα protein (human, UniProt P08887 20-365, limits assumed); test: ELISA, h-IL-6Rα coated on the plate, Fc-carrying nanobody titrated, OD450 [A]
T1 construct: Described only as 'soluble human IL-6Rα protein'; also called h-IL-6Rα; soluble human IL-6Rα protein
T1 sequence (looked up): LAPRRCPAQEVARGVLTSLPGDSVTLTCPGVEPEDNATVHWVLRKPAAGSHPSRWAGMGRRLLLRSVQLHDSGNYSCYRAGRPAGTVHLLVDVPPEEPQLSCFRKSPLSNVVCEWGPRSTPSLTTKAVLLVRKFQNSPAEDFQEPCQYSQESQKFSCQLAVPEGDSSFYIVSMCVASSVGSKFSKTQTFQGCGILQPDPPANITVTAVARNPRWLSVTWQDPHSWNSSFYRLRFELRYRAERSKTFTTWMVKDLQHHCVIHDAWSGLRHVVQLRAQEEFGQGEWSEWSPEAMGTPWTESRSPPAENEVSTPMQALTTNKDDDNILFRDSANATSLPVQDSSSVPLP
Experimental: (§1) The antigen h-IL-6Rα was coated in an immunoplate, and blocking, primary antibody incubation and secondary antibody incubation were employed, etc. After TMB color reaction and termination of color development by concentrated sulfuric acid, the OD450 value was measured by Microplate Reader to determine whether the antigen binds to the antibody. The detection of antibody binding to the murine-derived antigen m-IL-6Rα was performed in the same way as described above.

[2] = molecular target: T2, murine-derived IL-6Rα protein (murine, UniProt P22272 20-364, limits assumed); test: ELISA, m-IL-6Rα coated on the plate, Fc-carrying nanobody titrated, OD450 [B]
T2 construct: also called m-IL-6Rα; murine-derived antigen m-IL-6Rα
T2 sequence (looked up): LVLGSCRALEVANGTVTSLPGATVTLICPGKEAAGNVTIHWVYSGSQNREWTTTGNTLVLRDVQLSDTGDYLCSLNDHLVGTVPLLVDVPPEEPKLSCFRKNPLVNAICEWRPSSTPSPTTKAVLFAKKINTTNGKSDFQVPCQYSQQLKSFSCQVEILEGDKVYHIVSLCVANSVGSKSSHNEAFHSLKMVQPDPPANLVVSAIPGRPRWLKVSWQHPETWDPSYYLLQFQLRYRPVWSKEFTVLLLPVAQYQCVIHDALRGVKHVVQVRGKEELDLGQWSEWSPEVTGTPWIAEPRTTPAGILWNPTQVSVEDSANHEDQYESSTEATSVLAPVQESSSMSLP
Experimental: as §1

B1: 2S3-3D-Fc (Fc fusion)
chain: QLQLVESGGGLVRPGGSLRLSCTIHGVTLDWYAVGWFRQAPGKEREGVSCISSSDGSTYYADSVKGRFTISRDNVKNTMYLQMNSLKPEDTAVYYCAMVFTTAQAMGVPFHDFEYDYWGPGTQVTVS[no letters for human IgG1 Fc]
notes: also called Fc-carrying nanobody; nanobody-Fc
B1 was tested, and the “EC50 (read off the curve)” value [1] was ~0.3 nM and the binding result [2] was “binds”.
